Source: PMC12820563, “FoxP3 forms a head-to-head dimer in vivo and stabilizes its multimerization on adjacent microsatellites”
Some of the results follow.

The sequences below were run against T1, MBP-FoxP1dN (Mus musculus, UniProt P58462 326-579) (assay: PD-seq (MBP pull-down with sequencing); 20 mM Tris-HCl pH 7.5, 100 mM NaCl, 1.5 mM MgCl2, 0.4 uM protein, 0.1 uM dsDNA library, 30 min, room temperature, amylose pull-down; high values mean tight binding). Details: protein: recombinant; tags: His6-MBP; chain copies: 2; dsDNA, one strand shown.
T1 sequence: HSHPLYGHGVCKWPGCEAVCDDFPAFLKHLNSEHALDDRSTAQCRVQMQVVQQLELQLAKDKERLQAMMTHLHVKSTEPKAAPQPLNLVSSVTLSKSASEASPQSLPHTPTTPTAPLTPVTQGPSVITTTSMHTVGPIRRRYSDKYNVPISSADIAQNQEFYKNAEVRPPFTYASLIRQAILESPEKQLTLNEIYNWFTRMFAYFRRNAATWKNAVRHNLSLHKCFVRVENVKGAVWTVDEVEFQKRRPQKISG
Method in brief: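 His6-MBP-tagged mouse FoxP3 or FoxP1 fragment lacking the N-terminus, expressed in E. coli, was mixed at 0.4 µM with 0.1 µM Klenow-filled double-stranded degenerate DNA library. Incubation was 30 min at room temperature in Tris pH 7.5 buffer with NaCl and MgCl2. Complexes were caught on amylose resin and washed three times; DNA was released with proteinase K, PCR-barcoded and Illumina-sequenced. Binding is reads-per-million enrichment, pull-down over input, with replicates pooled.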

Q: For “GATGATTGTTCTCCCAGCTGATGAATTGTGCCTATCGAGTAAACAAATTTTCCTAATCTTTCTGTTCAAGCGCCATCTAC”, which binding signal is on record?
A: The binding signal was 1.09 RPM ratio (pull-down/input).

Q: “GATGATTGTTCTCCCAGCTGATGAATTCTTTATTTCGAGTAAACAAATTTTCCTAATCTTTCTGTTCAAGCGCCATCTAC” was tested. Which binding signal did it give?
A: Its binding signal is 1.03 RPM ratio (pull-down/input).

Q: With “GATGATTGTTCTCCCAGCTGATGAATTAGATAGCTCGAGTAAACAAATTTTCCTAATCTTTCTGTTCAAGCGCCATCTAC” as the sequence, how does the binding signal read?
A: Its binding signal is 0.854 RPM ratio (pull-down/input).

Q: With “GATGATTGTTCTCCCAGCTGATGAATTAAGTGTATCGAGTAAACAAATTTTCCTAATCTTTCTGTTCAAGCGCCATCTAC” as the sequence, how does the binding signal read?
A: The binding signal was 1.28 RPM ratio (pull-down/input).

Q: “GATGATTGTTCTCCCAGCTGATGAATTGTTATACTCGAGTAAACAAATTTTCCTAATCTTTCTGTTCAAGCGCCATCTAC” was tested. Which binding signal did it give?
A: The binding signal was 1.31 RPM ratio (pull-down/input).

Q: For “GATGATTGTTCTCCCAGCTGATGAATTGATACCATCGAGTAAACAAATTTTCCTAATCTTTCTGTTCAAGCGCCATCTAC”, which binding signal is on record?
A: The binding signal was 1.19 RPM ratio (pull-down/input).

Q: With “GATGATTGTTCTCCCAGCTGATGAATTGCTCATGTCGAGTAAACAAATTTTCCTAATCTTTCTGTTCAAGCGCCATCTAC” as the sequence, how does the binding signal read?
A: The binding signal was 0.977 RPM ratio (pull-down/input).

Q: “GATGATTGTTCTCCCAGCTGATGAATTCAACAACTCGAGTAAACAAATTTTCCTAATCTTTCTGTTCAAGCGCCATCTAC” was tested. Which binding signal did it give?
A: Its binding signal is 1.26 RPM ratio (pull-down/input).

Q: With “GATGATTGTTCTCCCAGCTGATGAATTCTATTATTCGAGTAAACAAATTTTCCTAATCTTTCTGTTCAAGCGCCATCTAC” as the sequence, how does the binding signal read?
A: Its binding signal is 1.55 RPM ratio (pull-down/input).

Q: “GATGATTGTTCTCCCAGCTGATGAATTTTAGTTTTCGAGTAAACAAATTTTCCTAATCTTTCTGTTCAAGCGCCATCTAC” was tested. Which binding signal did it give?
A: Its binding signal is 1.4 RPM ratio (pull-down/input).

Q: For “GATGATTGTTCTCCCAGCTGATGAATTCTTATGCTCGAGTAAACAAATTTTCCTAATCTTTCTGTTCAAGCGCCATCTAC”, which binding signal is on record?
A: The binding signal was 1.08 RPM ratio (pull-down/input).

Q: Which binding signal does the source give for “GATGATTGTTCTCCCAGCTGATGAATTTGGCGCTTCGAGTAAACAAATTTTCCTAATCTTTCTGTTCAAGCGCCATCTAC” here?
A: The binding signal was 0.895 RPM ratio (pull-down/input).

Q: For “GATGATTGTTCTCCCAGCTGATGAATTACAATTTTCGAGTAAACAAATTTTCCTAATCTTTCTGTTCAAGCGCCATCTAC”, which binding signal is on record?
A: The binding signal was 1.36 RPM ratio (pull-down/input).

Q: Which binding signal does the source give for “GATGATTGTTCTCCCAGCTGATGAATTTGAACCCTCGAGTAAACAAATTTTCCTAATCTTTCTGTTCAAGCGCCATCTAC” here?
A: Its binding signal is 0.763 RPM ratio (pull-down/input).

Q: How did the binding signal turn out when “GATGATTGTTCTCCCAGCTGATGAATTATAACCCTCGAGTAAACAAATTTTCCTAATCTTTCTGTTCAAGCGCCATCTAC” was run?
A: The binding signal was 0.997 RPM ratio (pull-down/input).

Q: For “GATGATTGTTCTCCCAGCTGATGAATTAAAAAGCTCGAGTAAACAAATTTTCCTAATCTTTCTGTTCAAGCGCCATCTAC”, which binding signal is on record?
A: Its binding signal is 0.898 RPM ratio (pull-down/input).

Q: For “GATGATTGTTCTCCCAGCTGATGAATTTGTACCTTCGAGTAAACAAATTTTCCTAATCTTTCTGTTCAAGCGCCATCTAC”, which binding signal is on record?
A: The binding signal was 1.13 RPM ratio (pull-down/input).

Q: Which binding signal does the source give for “GATGATTGTTCTCCCAGCTGATGAATTTACTGTGTCGAGTAAACAAATTTTCCTAATCTTTCTGTTCAAGCGCCATCTAC” here?
A: The binding signal was 1.12 RPM ratio (pull-down/input).

Q: For “GATGATTGTTCTCCCAGCTGATGAATTGCGATGGTCGAGTAAACAAATTTTCCTAATCTTTCTGTTCAAGCGCCATCTAC”, which binding signal is on record?
A: Its binding signal is 1.06 RPM ratio (pull-down/input).

Q: Which binding signal does the source give for “GATGATTGTTCTCCCAGCTGATGAATTTAGGTAATCGAGTAAACAAATTTTCCTAATCTTTCTGTTCAAGCGCCATCTAC” here?
A: Its binding signal is 1.42 RPM ratio (pull-down/input).

Q: “GATGATTGTTCTCCCAGCTGATGAATTTAGTCAATCGAGTAAACAAATTTTCCTAATCTTTCTGTTCAAGCGCCATCTAC” was tested. Which binding signal did it give?
A: Its binding signal is 1.18 RPM ratio (pull-down/input).

Q: With “GATGATTGTTCTCCCAGCTGATGAATTTGGCGACTCGAGTAAACAAATTTTCCTAATCTTTCTGTTCAAGCGCCATCTAC” as the sequence, how does the binding signal read?
A: Its binding signal is 0.836 RPM ratio (pull-down/input).

Q: “GATGATTGTTCTCCCAGCTGATGAATTCCGGAATTCGAGTAAACAAATTTTCCTAATCTTTCTGTTCAAGCGCCATCTAC” was tested. Which binding signal did it give?
A: The binding signal was 0.847 RPM ratio (pull-down/input).

Q: “GATGATTGTTCTCCCAGCTGATGAATTCCTTACATCGAGTAAACAAATTTTCCTAATCTTTCTGTTCAAGCGCCATCTAC” was tested. Which binding signal did it give?
A: The binding signal was 0.965 RPM ratio (pull-down/input).

Q: Which binding signal does the source give for “GATGATTGTTCTCCCAGCTGATGAATTACTAGCCTCGAGTAAACAAATTTTCCTAATCTTTCTGTTCAAGCGCCATCTAC” here?
A: The binding signal was 0.952 RPM ratio (pull-down/input).

Q: “GATGATTGTTCTCCCAGCTGATGAATTGTTATAGTCGAGTAAACAAATTTTCCTAATCTTTCTGTTCAAGCGCCATCTAC” was tested. Which binding signal did it give?
A: Its binding signal is 1.43 RPM ratio (pull-down/input).

Q: “GATGATTGTTCTCCCAGCTGATGAATTGTGCGAGTCGAGTAAACAAATTTTCCTAATCTTTCTGTTCAAGCGCCATCTAC” was tested. Which binding signal did it give?
A: The binding signal was 0.955 RPM ratio (pull-down/input).

Q: With “GATGATTGTTCTCCCAGCTGATGAATTAAGCCTCTCGAGTAAACAAATTTTCCTAATCTTTCTGTTCAAGCGCCATCTAC” as the sequence, how does the binding signal read?
A: Its binding signal is 0.897 RPM ratio (pull-down/input).

Q: “GATGATTGTTCTCCCAGCTGATGAATTACAGAACTCGAGTAAACAAATTTTCCTAATCTTTCTGTTCAAGCGCCATCTAC” was tested. Which binding signal did it give?
A: The binding signal was 1.01 RPM ratio (pull-down/input).

Q: “GATGATTGTTCTCCCAGCTGATGAATTGGCAGTTTCGAGTAAACAAATTTTCCTAATCTTTCTGTTCAAGCGCCATCTAC” was tested. Which binding signal did it give?
A: Its binding signal is 0.842 RPM ratio (pull-down/input).

Q: Which binding signal does the source give for “GATGATTGTTCTCCCAGCTGATGAATTAGCTTCTTCGAGTAAACAAATTTTCCTAATCTTTCTGTTCAAGCGCCATCTAC” here?
A: The binding signal was 1 RPM ratio (pull-down/input).

Q: Which binding signal does the source give for “GATGATTGTTCTCCCAGCTGATGAATTCTCGAAATCGAGTAAACAAATTTTCCTAATCTTTCTGTTCAAGCGCCATCTAC” here?
A: Its binding signal is 0.871 RPM ratio (pull-down/input).
